Over roughly 81,000 sequences, “one-hybrid fitness for binding parS DNA” has its median near -0.17; the highest 2% begin near 0.51. The list shows a part of the results.
B1: Caulobacter ParB omega fusion; a variant is named by its letters at X, in order, B8GW30 (parent)
chain: MESVVVGEPGMSEGRRGLGRGLSALLGEVDAAPAQAPGEQLGGSREAPIEILQRNPDQPRRTFREEDLEDLSNSIREKGVLQPILVRPSPDTAGEYQIVAGERAWRAAQRAGLKTVPIMVRELDDLAVLEIGIIENVQRADLNVLEEALSYKVLMEKFERTQENIAQTIGKSXSHVANXMRLLXLPDEVQSYLVSGELTAXHARAIAAAADPVALAKQIIEGGLSVRETEALARKAPNLSAGKSKGGRPPRVKDTDTQALESDLSSVLGLDVSIDHRGSTGTLTITYATLEQLDDLCNRLTRGI

Variants of: B1
Assay: one-hybrid fitness for binding parS DNA (scaled: cognate 1, non-cognate 0); higher = stronger binding
Conditions: with parS DNA site
Outline: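 Fitness here means the log change in variant-to-wild-type read ratio between plasmids sequenced before and after selection. That scale was set so cognate equals 1 and non-cognate equals 0. The selection was a bacterial one-hybrid screen of Caulobacter ParB libraries, four specificity codons randomised, in E. coli USO carrying a HIS3 reporter with the site 19 bp from the promoter, grown 48 hours at 37°C on M9-minus-histidine with 0.1 mM IPTG and 5 mM 3-AT.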

Variant	one-hybrid fitness for binding parS DNA
NMAR	≤ 0.2
SCIA	≤ 0.2
DVQV	≤ 0.2
HQAG	≤ 0.2
MNWM	≤ 0.2
DAAL	≤ 0.2
KVFR	≤ 0.2
ENKY	≤ 0.2
QMEE	≤ 0.2
QSPW	≤ 0.2
DYMM	≤ 0.2
KADF	≤ 0.2
WDEC	≤ 0.2
LPIT	≤ 0.2
CIQI	≤ 0.2
PMPN	≤ 0.2
SFKV	≤ 0.2
VVTS	≤ 0.2
NVCT	≤ 0.2
QQET	≤ 0.2
WKHS	≤ 0.2
HPTC	≤ 0.2
KRVV	≤ 0.2
LYRW	≤ 0.2
GCTY	≤ 0.2

Variant	one-hybrid fitness for binding parS DNA
WRAG	≤ 0.2
PQGS	≤ 0.2
QWSM	≤ 0.2
QKWY	≤ 0.2
TNTT	≤ 0.2
GLVL	≤ 0.2
DAMG	≤ 0.2
EYKG	≤ 0.2
VLYY	≤ 0.2
NCAE	≤ 0.2
DPVL	≤ 0.2
QFRE	≤ 0.2
ETYT	≤ 0.2
LPTC	≤ 0.2
LTGF	≤ 0.2
QKMF	≤ 0.2
QGRV	≤ 0.2
PGSI	≤ 0.2
PITS	≤ 0.2
WAAA	≤ 0.2
VTWH	≤ 0.2
CPDR	≤ 0.2
YASV	≤ 0.2
LQTM	≤ 0.2
QDAD	≤ 0.2

Variant	one-hybrid fitness for binding parS DNA
SHAY	≤ 0.2
QIGA	≤ 0.2
INYS	≤ 0.2
CSSW	≤ 0.2
PKTI	≤ 0.2
LKFR	≤ 0.2
NPDL	≤ 0.2
REGE	≤ 0.2
ASEL	≤ 0.2
MTAK	≤ 0.2
DMRS	≤ 0.2
LYVH	≤ 0.2
SPVG	≤ 0.2
GVAH	≤ 0.2
EEGS	≤ 0.2
TDTS	≤ 0.2
RTLK	≤ 0.2
RTRD	≤ 0.2
LCWC	≤ 0.2
QHML	≤ 0.2
IMLN	≤ 0.2
KWCT	≤ 0.2
NFRA	≤ 0.2
QVTA	≤ 0.2
QANH	≤ 0.2

Variant	one-hybrid fitness for binding parS DNA
LKCT	≤ 0.2
MSSA	≤ 0.2
QPSA	≤ 0.2
DQRG	≤ 0.2
VSEI	≤ 0.2
HNFT	≤ 0.2
HDGV	≤ 0.2
QYSC	≤ 0.2
HGYA	≤ 0.2
HHGR	≤ 0.2
RNTY	0.368
LMES	≤ 0.2
AQHE	≤ 0.2
TCAT	≤ 0.2
LYFS	≤ 0.2
KCTW	≤ 0.2
SSKA	≤ 0.2
RRVV	≤ 0.2
PDGW	≤ 0.2
LTAL	≤ 0.2
YING	≤ 0.2
HRSG	0.277
EHRV	≤ 0.2
CVTM	≤ 0.2
ISCP	≤ 0.2

Variant	one-hybrid fitness for binding parS DNA
SKMG	≤ 0.2
TDRM	≤ 0.2
FGAR	≤ 0.2
EDMS	≤ 0.2
FGTS	≤ 0.2
PNAP	≤ 0.2
HADI	≤ 0.2
PERY	≤ 0.2
KQTV	≤ 0.2
WFSG	≤ 0.2
QKRG	≤ 0.2
KQTC	≤ 0.2
IMTL	≤ 0.2
ADRE	≤ 0.2
QNYE	≤ 0.2
IPFL	≤ 0.2
DTWP	≤ 0.2
QMTC	≤ 0.2
RSFR	≤ 0.2
DPKT	≤ 0.2
SCET	≤ 0.2
IVLQ	≤ 0.2
TTCN	≤ 0.2
VPRT	≤ 0.2
QQTF	≤ 0.2

Variant	one-hybrid fitness for binding parS DNA
IRLH	≤ 0.2
HSNW	≤ 0.2
NFTT	≤ 0.2
GTSI	≤ 0.2
MEQR	≤ 0.2
RFLQ	≤ 0.2
ILPY	≤ 0.2
RIEM	≤ 0.2
QTPA	≤ 0.2
HNKS	≤ 0.2
AMQT	≤ 0.2
MRSG	≤ 0.2
QQVV	≤ 0.2
ESCY	≤ 0.2
LRDS	≤ 0.2
KLLR	≤ 0.2
YVYF	0.232
VRLA	≤ 0.2
FGRW	≤ 0.2
QLRF	≤ 0.2
NYAY	≤ 0.2
AVGD	≤ 0.2
IHDG	≤ 0.2
RQRE	≤ 0.2
HTIF	≤ 0.2

Variant	one-hybrid fitness for binding parS DNA
KDTS	≤ 0.2
SLEC	≤ 0.2
GPVI	≤ 0.2
REVA	≤ 0.2
KAVG	≤ 0.2
MRQA	≤ 0.2
HIMT	≤ 0.2
NVDG	≤ 0.2
TFRM	≤ 0.2
RGQF	≤ 0.2
SQSP	≤ 0.2
DRPK	≤ 0.2
RHWL	≤ 0.2
FSAM	≤ 0.2
NAFI	≤ 0.2
TPLE	≤ 0.2
LQKT	≤ 0.2
QCKY	≤ 0.2
QCMC	≤ 0.2
ATGW	≤ 0.2
VSFR	≤ 0.2
PSGM	≤ 0.2
QAFA	≤ 0.2
RKNE	≤ 0.2
GHTQ	≤ 0.2

Variant	one-hybrid fitness for binding parS DNA
PNLT	≤ 0.2
NLML	≤ 0.2
FSDG	≤ 0.2
VRSH	≤ 0.2
TTST	≤ 0.2
AQLT	≤ 0.2
SNND	≤ 0.2
NLRR	≤ 0.2
NAMP	≤ 0.2
DLYV	≤ 0.2
QAFF	≤ 0.2
AQRK	≤ 0.2
ISAP	≤ 0.2
FPES	≤ 0.2
PQDR	≤ 0.2
LKDG	≤ 0.2
LRCR	≤ 0.2
GAHG	≤ 0.2
VGRN	≤ 0.2
LQES	≤ 0.2

Source: a collection of fitness landscapes (doi:10.1016/j.celrep.2020.107928)
